Here are results for 22 molecules from paper PMC12136788.

The labels stand for the following.
B1: chr18:35731883:35731884:+_ENSMUSG00000037236_ENSMUST00000166793|perfect_dup|motif|central (ssRNA)
RNA: GGGAGUUCUACAGUCCGACGAUCAAUGUUAAAUAUAGACUGCAAAUUAUGGGAAGAAGUACUAGCAGAAGACAGUGCACGGUGAGCUCCUUGUUGAUUCAAUGAAGAACUCAUUCCAAGAUUCAUUAAACUAGCAAGGCGUGCCAACAGAGGAUUGAGCAUCA
B2: 220363083_220363729_1797_CDS_ENSG00000118873_ENST00000358951|human|control|control (ssRNA)
RNA: GGGAGUUCUACAGUCCGACGAUCUUCCUUUAUUUCUGUUUCAACCAAAUCAAGAUUGGGAGAUUUUGUUUUCAGUAAGGCUGCUAGUUUCUUCACUAGGUGCAUAUCCUUGGCUCGUUCACUCUUCUUAUCACUCAGUGCUAACAACAGAGGAUUGAGCAUCA
B3: chr16:5026692:5026693:-_ENSMUSG00000022536_ENSMUST00000115844|mus_hu|motif|central (ssRNA)
RNA: GGGAGUUCUACAGUCCGACGAUCACCCAUUUUUAGCAAGUUGGAGACGAUUCCACUUCCCAUGAGACCAAGGCCCAAAAAUCCGGUCUUUUUGUCUGUGGGUGUGAUGCUGCCAUUCACGGCUGUGCUGUCAGCUGCCUGGAUCAACAGAGGAUUGAGCAUCA
B4: chr3:150459880:150459881:-_ENSG00000181788_ENST00000312960|hu_hu|motif|central (ssRNA)
RNA: GGGAGUUCUACAGUCCGACGAUCUUGUGAAGACAUAUGGAAUAAAACAUCUAUAAAAACCUUUAUUAAACAUAGAGCACGGUGCCCAAAUAAUUUUGAAGGUUUACGAAAGUCACAUCAUGGACAACAUGUAGAAAUAGUAACCAACAGAGGAUUGAGCAUCA
B5: chr3:176767854:176767855:-_ENSG00000177565_ENST00000430069|hu_hu|hu_hu_hu_mus_False|48_58 (ssRNA)
RNA: GGGAGUUCUACAGUCCGACGAUCGACAUCCUUGUUACUGGGCACGUCCUGCCCUCCUUCCCGUAUGCAGUGUCUAAGUACUAACUGUGUAGAGCCACUCGUGCUGUUCUCACUGAGGUUCCAGAUUCUUGCCGUGGAGUCUCCCAACAGAGGAUUGAGCAUCA
B6: chr3:176767854:176767855:-_ENSG00000177565_ENST00000430069|hu_hu|hu_hu_hu_mus_False|18_88 (ssRNA)
RNA: B5 RNA with C48U, U78C, U81G, A83G, U87C, A92G, G117A, G123U
B7: chr2:73747280:73747281:-_ENSMUSG00000018770_ENSMUST00000018914|mus_mus|FALSE|FALSE (ssRNA)
RNA: GGGAGUUCUACAGUCCGACGAUCCUUCAGUGAAGGGUUUCUGGCAUAACCAAUGAUAAGACUGCCAAAGACUGUUCCAAUACCAGCACCAGAACCAGCAACUCCUACUGUUGCAGCACCUGCACCAAUGAAUUUGGCAGCAGUCAACAGAGGAUUGAGCAUCA
B8: chr11:68836070:68836071:+_ENSMUSG00000020898_ENSMUST00000116359|mus_mus|motif|central (ssRNA)
RNA: GGGAGUUCUACAGUCCGACGAUCCCUCACAUACAGGCUUCCACUCCUACAUUCUUGUUCCGAAUCUCCCAAUAGGUCGGCGGGUGUCCCUAAAAGUAUCAGCUGCUCCCGGGGCAGGACGCCGUCCCCCGGCCGGCCUCCGCGCAACAGAGGAUUGAGCAUCA
B9: chr12:93046693:93046694:-_ENSMUSG00000020964_ENSMUST00000021347|mus_mus|FALSE|FALSE (ssRNA)
RNA: GGGAGUUCUACAGUCCGACGAUCUUGAGAGGAAUGCUGGCUGCCUCUCAAAGAUCUGCCUCUCUGUGGCCAUGUCUUCAAAUUUGGAGGCAAAUAUCUUCGAGGAAAAUUUUUGCUUCCUGGGUUUCCCAUAAUACUGUGAGCCAACAGAGGAUUGAGCAUCA
B10: chr5:21280853:21280854:-_ENSMUSG00000029014_ENSMUST00000030771|mus_mus|FALSE|FALSE (ssRNA)
RNA: GGGAGUUCUACAGUCCGACGAUCCUUAGCUUCACUUUUAGAAGGAACUGAGUUGUCAAAAGUAGGAUCUACACUGUUAAAUGCCCGCCUUUUCACUGGAUCAGACAACAUUUCAUAAGCUUUAGUUAUGCAAGUGAAGUAGUCCAACAGAGGAUUGAGCAUCA
B11: chr1:229631779:229631780:-_ENSG00000069248_ENST00000261396|hu_hu|FALSE|FALSE (ssRNA)
RNA: GGGAGUUCUACAGUCCGACGAUCUAAUUCCCAUUUACUGAUGUUUGAACUCGUCAGGCUAUAAAAGCUUGAUCUCUCUCUAUCCCAGAGAACACUUGAAAGUGUGAGAUCACUACUAGGAGAUAAAAUUCCAAAAAGAGAAGACAACAGAGGAUUGAGCAUCA
B12: chr16:94664741:94664742:+_ENSMUSG00000040785_ENSMUST00000117648|mus_hu|mus_mus_mus_hu_False|78_108 (ssRNA)
RNA: GGGAGUUCUACAGUCCGACGAUCUGGCAUGGAUCUUGGUAGCUGAUAUUCAGGAGAAAUGUUGGCCAAGGGUGUAUAUAUGCUGGUGUACUGGGGCAAACCUGGUAACACGUUUAUGUAUGCUGGCGGUGUCUGGGUGAUAUCCAACAGAGGAUUGAGCAUCA
B13: chrX:98862621:98862622:+_ENSMUSG00000034160_ENSMUST00000044475|mus_hu|mus_mus_mus_hu_False|48_88 (ssRNA)
RNA: GGGAGUUCUACAGUCCGACGAUCCUGCAUCUCCUUUAGAGUGUUUCCCAUAUUGGAGUAGGCAUCAGCAAAGGUAGGACUGAUUCGUAUGGCUUCUUUAUAAUGCAUCAGAGCUUCCUGCAGUUUUCCCUGCUGCUGCAGUACCAACAGAGGAUUGAGCAUCA
B14: chr11:66627819:66627820:+_ENSG00000173621_ENST00000309602|hu_mus|FALSE|FALSE (ssRNA)
RNA: GGGAGUUCUACAGUCCGACGAUCCUUGGUGGCUCUGAGCACCUGUUGGUGGGACCUGUCCCUUUAGUCUGGAGGCCAAAACCAAGGAAAGGGUUUGCUGUCCCACCAAGUACAUGGGGGCCUGAGGUACUGAGGAUAAAAAGCCAACAGAGGAUUGAGCAUCA
B15: 239353028_239353148_847_CDS_ENSG00000065802_ENST00000264607|human|control|control (ssRNA)
RNA: GGGAGUUCUACAGUCCGACGAUCGAAGUCAGGGUUCGCGCCAGCCAGGAGGAGCAGCCGGAAGCACUGGAGGUUGUGGUAGGCUGCGCUGAUGUACAAGGGGCAGACCACCAAGGAGGUGAGCCGCCGGGAGAAUCGAGGCUGCAACAGAGGAUUGAGCAUCA
B16: 54627192_54627312_8999_3pUTR_ENSG00000094916_ENST00000209875|human|control|control (ssRNA)
RNA: GGGAGUUCUACAGUCCGACGAUCCACCACCAGCCCUCGUUUAGAAUCCAAUCCUAAAGCUACCGGAAACCAGAACACUGACUUGAGCCUUAAGAGUGUUGUGACAUGAUUAAACUGUCUUUUCAGGUGUUCUCAAAGAAUUUCCAACAGAGGAUUGAGCAUCA
B17: chr18:9257185:9257186:+_ENSG00000101745_ENST00000400020|hu_hu|motif|central (ssRNA)
RNA: GGGAGUUCUACAGUCCGACGAUCUUGGAAUUGUUUGGUAUGUUCACAAAUGACAGAAGGCAUGCUACAUCUUCGAACUUCGGUGGUAGGUCUCCCCUCGCUUAUAAUUAGUUUAACAUCUUCUACAGAAGAUGACCUAAGAUGCAACAGAGGAUUGAGCAUCA
B18: chr11:75113396:75113397:+_ENSG00000149273_ENST00000524851|hu_mus|FALSE|FALSE (ssRNA)
RNA: GGGAGUUCUACAGUCCGACGAUCCCCUCCAAGGAGUUUGUAGCGUAGAGACUCUGCCUGGGCAAUGGCACACAGACCUCUUGUGGCCACUUUCUCUGCAUAAAGCUCUACGCUGCCUUCAGGGAAGCCAAAGCGCUUCUGGACCAACAGAGGAUUGAGCAUCA
B19: chr9:21312366:21312367:-_ENSMUSG00000032180_ENSMUST00000034698|mus_mus|FALSE|FALSE (ssRNA)
RNA: GGGAGUUCUACAGUCCGACGAUCAGGGUGGGGGGCAGCACCACAGCUUCACCCCAUCCUGAUAGCUGCAAGACUGAAGCUAAGGCACGAUUUCAGGAGAAAGCCAGGGCAUCCAAGAGCAGUGUCCCCACACUGCUGCGCCCACAACAGAGGAUUGAGCAUCA
B20: chr17:37360870:37360871:+_ENSG00000108298_ENST00000225430|hu_mus|FALSE|FALSE (ssRNA)
RNA: GGGAGUUCUACAGUCCGACGAUCCCGCUAUGUACAGACACGAGGGAAGCUUUAUUUCUUGGUCUCCUCCUCCUUGGACAGAGUCUUGAUGAUCUCUUCCUUCUUGGCCUGGAGGCGCUCCUCCCGGCGCUUUCGUGCUUCCUUCAACAGAGGAUUGAGCAUCA
B21: chr7:157177620:157177621:+_ENSG00000105993_ENST00000429029|hu_mus|motif|central (ssRNA)
RNA: GGGAGUUCUACAGUCCGACGAUCGCCCAUUCCACUGCCGCCAAAUGACGUUGAAGAAAAUGAAGUGAGACCCCCAUGACCGGGUGACCCAAAUGGAGUGAAGCCUGUAUCAAAAGCAGGAAAUCCACUUCCAAAAGAAGGAAACAACAGAGGAUUGAGCAUCA
B22: chr19:42880530:42880531:+_ENSG00000105429_ENST00000334370|hu_hu|FALSE|FALSE (ssRNA)
RNA: GGGAGUUCUACAGUCCGACGAUCUGCCAGGAAGGGCUCAGAGCGGCGGAAGGCGGGAGGUGGGAGCCCAGCCGGCUUCCAGGCGGAGGCCGGGGCAGUAGGGUCAGGUGGGAAGCAGACGGUGACCUUGGCGAAGGGGCGGCUCAACAGAGGAUUGAGCAUCA

Positions count from the first letter of the chain named. The list shows a part of the results.

For this test, the target named is T1, UNK ZnF1-3 (human, UniProt Q9C0B0 31-174).
T1 sequence: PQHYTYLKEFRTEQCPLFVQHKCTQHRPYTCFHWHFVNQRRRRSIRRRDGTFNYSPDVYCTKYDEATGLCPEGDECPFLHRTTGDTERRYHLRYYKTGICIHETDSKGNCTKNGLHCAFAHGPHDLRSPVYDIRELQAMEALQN
Kind of test: nsRBNS (natural sequence RNA bind-n-seq); RBNS binding buffer (assumed for nsRBNS): 25 mM Tris pH 7.5, 150 mM KCl, 3 mM MgCl2, 0.01% Triton X-100, 500 ug/ml BSA, 20 U/ml SUPERase-In, 4 C; UNK is unkempt and MSI1 is Musashi-1; names of the RNAs are library labels; protein concentration not given here; high values mean tight binding.
B1 displayed a binding signal of 0.929 enrichment R. For B2 the value was 0.385 enrichment R; for B3, 0.693 enrichment R; for B4, 1.11 enrichment R. For B5 the value was 0.583 enrichment R. The same measure for B6: 0.353 enrichment R; for B7: 0.899 enrichment R; for B8: 0.696 enrichment R. For B9, the binding signal was 0.852 enrichment R.

Consider B10, for which the binding signal came out at 1.53 enrichment R. For B11 the value was 0.956 enrichment R; for B12, 0.95 enrichment R.

As to B13, the binding signal came to 0.956 enrichment R. The same measure for B14: 1.15 enrichment R.

B15 displayed a binding signal of 0.561 enrichment R. For B16 the value was 1.51 enrichment R; for B17, 0.843 enrichment R.

Take B18: the binding signal was determined as 0.689 enrichment R.

B19 came in with a binding signal of 0.827 enrichment R.

Turning to B20, the binding signal was determined as 0.577 enrichment R. B21 showed a binding signal of 1.27 enrichment R. B22: the binding signal turned out to be 2.07 enrichment R.
